Assay results as given in PMC4336329 (PLoS ONE, 2015).
Screen size: about 310,000 compounds; about 14,000 (4.5%) showed an effect of 50% or more. Effects have a minus sign here. The list shows a part of the results.

The molecules below were run against human ether-à-go-go-related gene (hERG) potassium channel (human, UniProt Q12809) (assay: primary screen, population patch clamp on CHO cells stably expressing hERG).
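Also: peak tail current of the secondary pulse compared with the same well before compound.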

Sequence of human ether-à-go-go-related gene (hERG) potassium channel (Q12809 whole entry, looked up): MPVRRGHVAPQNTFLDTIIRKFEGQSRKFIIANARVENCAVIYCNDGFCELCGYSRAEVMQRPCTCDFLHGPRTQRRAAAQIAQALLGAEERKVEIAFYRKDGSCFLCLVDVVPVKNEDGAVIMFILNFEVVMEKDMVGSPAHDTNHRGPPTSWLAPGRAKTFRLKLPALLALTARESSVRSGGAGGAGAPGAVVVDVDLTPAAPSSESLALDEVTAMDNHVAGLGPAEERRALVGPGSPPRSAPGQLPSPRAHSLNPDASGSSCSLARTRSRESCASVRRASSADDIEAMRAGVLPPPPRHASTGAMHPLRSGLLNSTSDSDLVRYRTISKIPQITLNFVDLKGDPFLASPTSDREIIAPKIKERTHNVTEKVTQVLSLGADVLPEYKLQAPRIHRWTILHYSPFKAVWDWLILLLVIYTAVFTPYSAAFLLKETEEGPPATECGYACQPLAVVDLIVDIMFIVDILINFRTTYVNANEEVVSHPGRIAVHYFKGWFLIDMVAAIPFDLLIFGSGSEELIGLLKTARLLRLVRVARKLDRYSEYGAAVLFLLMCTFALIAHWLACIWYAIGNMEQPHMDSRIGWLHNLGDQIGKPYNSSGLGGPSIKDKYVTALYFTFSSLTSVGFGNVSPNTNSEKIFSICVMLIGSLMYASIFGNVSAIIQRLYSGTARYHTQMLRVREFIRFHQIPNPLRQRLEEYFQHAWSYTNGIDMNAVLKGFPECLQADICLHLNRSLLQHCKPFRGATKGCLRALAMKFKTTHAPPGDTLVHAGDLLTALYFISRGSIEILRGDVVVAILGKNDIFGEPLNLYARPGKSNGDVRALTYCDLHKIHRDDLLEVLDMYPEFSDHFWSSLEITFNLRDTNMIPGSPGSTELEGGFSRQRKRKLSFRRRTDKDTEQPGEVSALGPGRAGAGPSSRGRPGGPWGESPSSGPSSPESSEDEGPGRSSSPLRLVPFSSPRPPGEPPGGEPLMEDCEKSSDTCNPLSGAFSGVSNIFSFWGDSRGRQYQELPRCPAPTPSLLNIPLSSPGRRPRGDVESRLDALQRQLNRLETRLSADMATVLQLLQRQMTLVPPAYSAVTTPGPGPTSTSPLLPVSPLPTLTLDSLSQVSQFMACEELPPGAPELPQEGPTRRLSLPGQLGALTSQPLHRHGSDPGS

Row | SMILES | hERG current change (%, negative = inhibition) at 10uM [%]
1 | CC1CC1C(=O)OCC(=O)NNC(=O)COc1ccc(Br)cc1 (stereo not drawn) | -7.8
2 | O=C(N/N=C/c1cccnc1)c1ccccc1[N+](=O)[O-] | -13.8
3 | CC(C)CC(C(=O)NC(=O)NCc1ccccc1)N1C(=O)c2ccccc2C1=O (stereo not drawn) | 8.22
4 | COc1ccc(S(=O)(=O)Nc2ccc(O)c(Sc3nc4ccccc4s3)c2)cc1 | 19.8
5 | COc1cc(C2c3c(-c4ccccc4)n[nH]c3C(=O)N2c2ccc(C(=O)O)cc2)ccc1O (stereo not drawn) | 8.38
6 | CC1=C(C(=O)OC(C)C)C(c2ccccc2)NC(=S)N1C (stereo not drawn) | 2.43
7 | O=C(NC1CCN(S(=O)(=O)c2ccc(F)cc2)CC1)c1ccc(F)cc1 | 4
8 | CC(=O)Cc1nsc(Nc2ccccc2)n1 | 13.5
9 | CCn1c(SCC(=O)Nc2ccc3c(c2)OCO3)nnc1C(C)C | -5.58
10 | COc1ccc(-c2n[nH]c(=S)n2/N=C/c2cccn2C)cc1 | 13.2
11 | COC(=O)Cn1cnc2sc(C)c(S(=O)(=O)N3CCN(c4ccccc4OC)CC3)c2c1=O | -5.55
12 | COc1ccc(OCCCN2CCCCCC2)cc1.O=C(O)C(=O)O | -19.3
13 | CN(C)CCNC(=S)Nc1ccc(Cl)cc1Cl.Cl | -12.3
14 | O=C(CNC(=O)C(c1ccccc1)c1ccccc1)N/N=C\c1ccc2c(c1)OCO2 | 8.08
15 | O=C(NC1CCCC1)c1ccc2c(c1)N(Cc1ccccc1)CCS2 | -10.9
16 | Cc1ccc(S(=O)(=O)N(C)C)cc1NC(=O)COC(=O)c1c(C)noc1C | -5.78
17 | CCN1CC2=C(OC(N)=C(C#N)C2c2ccccc2)/C(=C\c2ccccc2)C1 (stereo not drawn) | -6.02
18 | COc1ccc2c(C)c(CCC(=O)NC3CC3)c(=O)oc2c1 | 7.88
19 | Cc1cc(C)cc(C(=O)NC(CC(N)=O)c2ccc(N3CCN(C)CC3)c([N+](=O)[O-])c2)c1 (stereo not drawn) | 14.5
20 | c1ccc(-c2ncc3ccccn23)cc1 | -3.24
21 | COc1ccc(Nc2ccccc2C(=O)O)cc1 | 12
22 | COc1ccc(NC(=O)Nc2ccccc2OC)cc1 | -7.12
23 | CCN1CCN(c2c(C(=O)c3ccc(OC)cc3)cnc3ccccc23)CC1 | -80.3

Row | SMILES | hERG current change (%, negative = inhibition) at 10uM [%]
24 | COc1cc(-c2nnc(SCc3ccccc3Cl)o2)cc(OC)c1OC | 2.94
25 | Cc1cccc(C)c1NC(=O)Cn1nnnc1N | 10.4
26 | COc1ccc(N2CCN(CCCNC(=S)Nc3c(C)cccc3C)CC2)cc1 | -52.4
27 | Cc1ccc(Cl)cc1-n1c(=O)cc(N2CCN(C(=O)c3ccco3)CC2)[nH]c1=O | 6.02
28 | Cl.N=c1c2c(n(Cc3ccc(F)cc3)c3c1CCC3)CCCC2 | -11.6
29 | Cc1c(C(=O)NCCSCc2c(F)cccc2Cl)cnn1-c1ccc(F)cc1 | -45.7
30 | O=C(N/N=C\c1ccc(F)cc1)c1ccc(Cn2cc(Br)c([N+](=O)[O-])n2)o1 | -59.9
31 | O=[N+]([O-])c1ccc(C=Nc2ccc(Cl)cc2Cl)s1 | -5.42
32 | O=C(NNC(=S)NC1CC2C=CC1C2)c1cccnc1 (stereo not drawn) | 18.9
33 | COc1ccccc1N1CCN(/N=C\c2sccc2C)CC1 | -3.44
34 | CCCNC(=O)C(Cc1ccccc1)NC(=O)c1ccc(C(C)(C)C)cc1 (stereo not drawn) | -8.27
35 | O=C(NNS(=O)(=O)c1ccccc1C(F)(F)F)c1cccc(S(=O)(=O)Nc2ccccc2Cl)c1 | -4.15
36 | Cc1ccc(OCC(=O)NC(C)c2ccc(Cl)c(Cl)c2)c([N+](=O)[O-])n1 (stereo not drawn) | -21.4
37 | O=C(NCC1CCCO1)C1CCN(S(=O)(=O)Cc2ccccc2)CC1 (stereo not drawn) | 9.86
38 | CC(OC(=O)c1cccc(NS(C)(=O)=O)c1)C(=O)Nc1ccc2c(c1)OCO2 (stereo not drawn) | -36.3
39 | Cc1nn(C(C)CC(=O)O)c(C)c1Br (stereo not drawn) | 10.4
40 | COc1ccccc1CNC(=O)c1cc(-c2cccnc2)nc2ccccc12 | -12.1
41 | CC(=O)N(c1cccc(Br)c1)c1nc(C)cc(C)c1C#N | 8.79
42 | CC(C)(C)n1nnnc1C(c1cccnc1)N(Cc1ccccc1)Cc1cccs1 (stereo not drawn) | -11.2
43 | COc1ccc(NC(=O)c2cc(-c3ccccc3)on2)cc1OC | 19.5
44 | O=C(CCC(=O)NC1CCN(Cc2ccccc2)CC1)NCc1ccco1 | -1.88
45 | CN(Cc1ccccc1)C(=O)Cn1cccc1C(=O)c1ccccc1 | 14.6
